Molecular target: human BAX P168G in HCT116 BAX KO cells (human) (UniProt Q07812)
Assay: SEC; cytosolic fraction of HCT116 BAX KO cells reconstituted with BAX WT, P168G or E75K, untreated; Superdex 200 10/300 GL in IBc buffer, 4 °C; fractions blotted for BAX

stoichiometry N: 2
Substance: human BAX P168G in HCT116 BAX KO cells (a stretch of the chain, sequence left out) (natural protein; other documents disagree on this pair)
